Data from paper PMC4336329 (PLoS ONE, 2015).
Screen size: about 310,000 compounds; about 2,200 (0.71%) showed an effect of 50% or more. Effects have a minus sign here. The list shows a part of the results.

biological target: human ether-à-go-go-related gene (hERG) potassium channel (human, UniProt Q12809); assay: primary screen, population patch clamp on CHO cells stably expressing hERG
Sequence (Q12809 whole entry, looked up): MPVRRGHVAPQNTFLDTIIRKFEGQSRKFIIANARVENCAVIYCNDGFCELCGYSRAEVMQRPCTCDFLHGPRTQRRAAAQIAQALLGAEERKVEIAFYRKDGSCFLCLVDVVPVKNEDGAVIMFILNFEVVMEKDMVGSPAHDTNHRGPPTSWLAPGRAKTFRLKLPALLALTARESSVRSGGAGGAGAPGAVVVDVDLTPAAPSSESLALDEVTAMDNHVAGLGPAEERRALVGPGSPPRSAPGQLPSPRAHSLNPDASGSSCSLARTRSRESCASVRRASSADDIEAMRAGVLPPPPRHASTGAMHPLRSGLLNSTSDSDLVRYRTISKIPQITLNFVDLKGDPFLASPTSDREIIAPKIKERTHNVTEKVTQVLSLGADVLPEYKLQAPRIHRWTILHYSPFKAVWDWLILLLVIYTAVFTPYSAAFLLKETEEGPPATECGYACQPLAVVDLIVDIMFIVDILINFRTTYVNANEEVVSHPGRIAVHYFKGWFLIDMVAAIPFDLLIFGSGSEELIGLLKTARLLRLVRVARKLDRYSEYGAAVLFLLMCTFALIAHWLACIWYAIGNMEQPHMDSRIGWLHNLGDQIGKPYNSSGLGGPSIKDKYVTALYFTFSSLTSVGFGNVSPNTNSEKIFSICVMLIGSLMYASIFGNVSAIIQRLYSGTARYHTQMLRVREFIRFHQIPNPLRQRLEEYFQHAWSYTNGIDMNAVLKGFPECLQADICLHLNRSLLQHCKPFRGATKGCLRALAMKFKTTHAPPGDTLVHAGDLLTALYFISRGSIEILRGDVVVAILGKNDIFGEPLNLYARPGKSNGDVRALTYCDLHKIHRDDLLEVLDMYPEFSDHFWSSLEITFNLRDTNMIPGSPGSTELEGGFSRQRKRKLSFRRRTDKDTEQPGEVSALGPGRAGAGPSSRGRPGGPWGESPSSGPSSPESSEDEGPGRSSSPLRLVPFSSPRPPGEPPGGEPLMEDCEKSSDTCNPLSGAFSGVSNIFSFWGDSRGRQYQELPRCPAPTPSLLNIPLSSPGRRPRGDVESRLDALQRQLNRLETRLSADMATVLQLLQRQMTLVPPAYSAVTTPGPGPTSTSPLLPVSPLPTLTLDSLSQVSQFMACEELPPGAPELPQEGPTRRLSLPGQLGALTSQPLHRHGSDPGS

SMILES	hERG current change (%, negative = inhibition) at 1uM [%]
COc1cccc(C2C3(C#N)C(N)=NC(OC)(OC)C23C#N)c1 (centres unmarked)	9.3
CCOc1ccc(CCNC(=O)CN2C(=O)CCSc3ccccc32)cc1	3.31
CCN(CC(=O)Nc1ccccc1C(F)(F)F)C(=O)CCc1c(C)[nH]c(=O)c(C#N)c1C	4.71
Oc1ccc(-c2[nH]ncc2-c2ccc(Br)cc2)c(O)c1	6.73
N#Cc1ccccc1S(=O)(=O)N1CCN(S(=O)(=O)c2ccc(Br)c(C(=O)O)c2)CC1	12.2
CN(C(=O)CCc1ccccc1)c1nnc(-c2ccncc2)s1	18.9
O=C(Nc1ccccc1N1CCCCC1)C1CCN(S(=O)(=O)c2ccccc2C(F)(F)F)CC1	4.04
CC(=NCC1CCNCC1)C1=C(O)CC(C)(C)CC1=O	9.55
O=C(O)c1ccc(NS(=O)(=O)c2ccc3nnn(O)c3c2)cc1	-0.0934
O=C(CN1C(=O)CCS(=O)(=O)c2ccccc21)NCc1ccc2c(c1)OCO2	4.18
Cl.O=C(Cc1ccccc1)OCCN1CCOCC1	18.4
Cc1ccc(/C=C/S(=O)(=O)NCC(=O)OCC(=O)Nc2c(F)cccc2F)cc1	8.06
Cc1cccc(OCCNc2cc(N3CCOCC3)ccc2[N+](=O)[O-])c1	2.66
Cc1ccc(S(=O)(=O)NCc2ccc(C(=O)N(C)CCC#N)cc2)cc1	-0.626
CCCSCCCNC(=O)c1ccccc1NC(=O)C1=CSCCO1	9.35
COc1cccc(CNCCc2cccc(F)c2)c1OC.O=C(O)C(=O)O	10.7
CCN1CCN(c2cc3c(cc2F)c(=O)c(C(=O)O)cn3C2CC2)CC1	12.7
CCCCCSc1nc(C)c(CC(=O)O)c(=O)[nH]1	10.1
Nc1c(NC=O)c(=O)n(Cc2ccccc2)c(=O)n1Cc1ccccc1	13.7
COc1ccc(CN2CCC(CNC(=O)NC3CCCCC3)CC2)cc1	-37.3
CCCCNC(=O)c1ccc(CS(=O)(=O)c2ccccc2OC)o1	7.78
Cc1ccc(C)c(OCCCNC2CCCC2)c1C.O=C(O)C(=O)O	10.1

SMILES	hERG current change (%, negative = inhibition) at 1uM [%]
COc1ccc(N(C(=O)c2ccco2)C(C(=O)NC2CCCCC2)c2cccs2)cc1OC (centres unmarked)	11.1
Cc1cc(OCCCn2ccnc2)ccc1C(C)C	8.96
CSc1nc(C)c2c(c1C#N)CCCC2	0.889
CC(=O)c1c(C)[nH]c(C(=O)NCc2ccccn2)c1C	12.5
O=C(O)Cc1csc(-c2ccc(F)cc2)n1	16.6
Cc1cccc(NC(=O)COC(=O)c2cccs2)c1C	11.7
COc1ccc([N+](=O)[O-])cc1NC(=O)Cc1ccc(Cl)cc1	12.8
Cc1csc(=O)n1CCC(=O)OCC(=O)Nc1ccc(Cl)cn1	6.83
COc1ccccc1NC(=O)COc1ccc(/C=N/NC(=O)CSCc2ccc(Cl)cc2)cc1	7.3
CCC(C)C(NC(=O)C1CCC(=O)N1C(=O)OCc1ccccc1)C(=O)NC(C(=O)N1CCCC1C(N)=O)C(C)CC (centres unmarked)	6.05
COc1cccc(S(=O)(=O)N2CCOCC2)c1	-3.4
O=C(/C=C/c1ccco1)NCCCN1CCOCC1	13.9
O=C(COC(=O)CCC1CCCC1)Nc1ccccc1Br	-1.26
CC(=O)Nc1ccccc1OCC(=O)c1cc(C)n(Cc2cccs2)c1C	13.5
Cc1ccccc1OCCn1c(=S)[nH]c2c(N)ncnc21	8.36
Cc1occc1-c1nnc(SCC(=O)NCc2cccs2)n1-c1ccc(F)cc1	-14
O=C(/C=C/c1ccc(S(=O)(=O)N2CCOCC2)cc1)NC(=S)Nc1ccc(N2CCOCC2)cc1	10.9
Cc1cccc(N2CCN(C(=O)Cc3ccc(Br)cc3)CC2)c1C	4.95
CC1CCCC(C)N1C(=O)CSc1nnc(C2CCCCC2)o1 (centres unmarked)	2.29
COC(=O)Nc1sccc1C(=O)Nc1sccc1C(=O)OC	11.6
COc1ccccc1N1C(=S)N=C(Nc2c(C)cccc2C)C12CCCC2	11.2
c1ccc2sc(C3CCN(Cc4nnnn4Cc4ccc5c(c4)OCO5)CC3)nc2c1	7.43
